# Out of some 410,000 compounds screened, about 5,000 (1.2%) were called active. The inconclusive results got no clear call from the source; some entries with a clear call stand among them for comparison. Calls follow the shape of the dose curve; as a rule, active = well fitted inhibition curve with a large enough effect; inconclusive = small, poorly fitted or top-dose-only effect; inactive = no such curve, though single readings can be large or run the other way. Where the call is inconclusive, the potency comes from a doubtful curve fit.
# Assay: qHTS for Inhibitors of TGF-b; also: nearly all actives have a fitted effect of over 65% in size
# Settings: HepG2 CAGA-GFP TGF-b/SMAD3 reporter, GFP fluorescence, 18 h, TGF-beta stimulated, 500 pg/mL final; series mostly up to 46.1 µM
# How it was run: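 Using HEPG2 CAGA-GFP reporter cells at 1000 cells/well, we pinned test compounds, stimulated with recombinant TGF-beta (500 pg/mL final) and measured total well GFP after 18 h.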
# Potency is read from the fitted curve at half-maximal effect; tags tell the direction and shape of the fitted curve.
row,Structure (SMILES),Potency
1,CSc1ccc(CN2CCC(Oc3cccc(C(=O)N4CCCC4)c3)CC2)cc1,"inconclusive: 0.631 µM [inhibitor, partial curve, poor fit]"
2,CCOC(=O)C(=O)Nc1nnc2n1CCS2,"inconclusive: 3.55 µM [inhibitor, single point]"
3,CCC(C)c1ccc(NC(=S)N2CCN(C(=O)C3CCCO3)CC2)cc1 (stereo not given),"inconclusive: 22.4 µM [inhibitor, single point]"
4,Cc1ccc(NC(=O)CN(C)C(=O)Cn2cc(C(F)(F)F)ccc2=O)cc1,"inconclusive: 7.94 µM [inhibitor, partial curve, poor fit]"
5,CCCCNc1cc(=O)n(C)c(=O)n1C,inactive
6,CC(C)C(=O)Nc1ccc(NC(=O)c2ccc(COc3ccccc3)cc2)cc1,"inconclusive: 1.58 µM [inhibitor, partial curve]"
7,O=C(CN1CCN(S(=O)(=O)c2ccc(F)cc2)CC1)Nc1ccc2c(c1)OCCO2,inactive
8,COc1ccc(CNC(=O)c2ccc(CSc3nc4ccncc4n3Cc3ccccc3F)cc2)cc1,"inconclusive: 0.891 µM [inhibitor, full curve, poor fit]"
9,CNc1nc(Nc2ccc(C)cc2C)c2sccc2n1,"inconclusive: 25.1 µM [inhibitor, single point]"
10,O=C(c1ccc(CS(=O)c2cccc(Cl)c2)o1)N1CCCCCC1 (stereo not given),inactive
11,Cc1nn(-c2ccccc2)cc1/C=N/NC(N)=S,"inconclusive: 22.4 µM [inhibitor, single point]"
12,CCC(C)Sc1nnc(-c2c[nH]c3ccccc23)n1CCOC (stereo not given),"inconclusive: 35.5 µM [inhibitor, single point]"
13,Nc1ccc(C#Cc2ccc3oc4ccccc4c(=O)c3c2)cc1,"inconclusive: 35.5 µM [inhibitor, partial curve, poor fit]"
14,Cc1cc(N)n(-c2ncnc3scc(-c4ccc(Cl)cc4)c23)n1,inactive
15,Cc1ccc(C(=O)n2c(-c3ccccc3)cnc2SCC(=O)Nc2ccc(C)cc2C)cc1,"inconclusive: 20 µM [inhibitor, single point]"
16,CC1=NN(C(=O)Cc2ccc([N+](=O)[O-])cc2)C(O)(C(F)(F)C(F)(F)F)C1 (stereo not given),active: 11.2 µM
17,O=Cc1c(Cl)nc2ccccn2c1=O,"inconclusive: 35.5 µM [inhibitor, single point]"
18,COc1ccc(N(CC(O)CN2C(=O)NC(C)(C)C2=O)S(=O)(=O)c2ccc(C)cc2)cc1 (stereo not given),"inconclusive: 35.5 µM [inhibitor, single point]"
19,CCN(CC)S(=O)(=O)c1ccc(C)c(NC(=S)Nc2cccc(S(=O)(=O)N3CCCCCC3)c2)c1,"inconclusive: 20 µM [inhibitor, partial curve, poor fit]"
20,CC1C/C(=N\Nc2ccc(S(N)(=O)=O)cc2[N+](=O)[O-])CC(C)(C)C1 (stereo not given),"inconclusive: 20 µM [inhibitor, single point]"
21,CCOc1cc(C)c(S(=O)(=O)NC2CCCCC2)cc1C,"inconclusive: 22.4 µM [inhibitor, single point]"
22,CC(C)=CC(=O)OCc1csc(CC(=O)Nc2ccccc2C)n1,inactive
23,CCOc1cccc2cc(C(=O)NCc3ccc(F)cc3)c(=N)oc12,inactive
24,O=[N+]([O-])c1ccc(Nc2nc(N3CCOCC3)nc(N3CCOCC3)n2)cc1,inactive

row,Structure (SMILES),Potency
1,CC(C)(C)C(=O)NCCN1C(=O)S/C(=C\c2ccc([N+](=O)[O-])cc2)C1=O,inactive
2,O=C(Cc1ccccc1[N+](=O)[O-])N1CCN(c2ccccc2F)CC1,"inconclusive: 2.82 µM [inhibitor, single point]"
3,CCc1cccc(NC(=O)CSc2ncc3c(n2)-c2ccccc2N(CC)S3(=O)=O)c1,"inconclusive: 0.562 µM [inhibitor, partial curve, poor fit]"
4,COc1ccc(NC(=O)C(C)n2nc(-c3cc(C)ccc3C)c3c(c2=O)CCCC3)cc1 (stereo not given),"inconclusive: 35.5 µM [inhibitor, single point]"
5,CCOC(=O)c1[nH]c(C)c(C(=O)OC)c1C,inactive
6,CCC(=O)Nc1nnc(/C=C/c2ccc(OC)cc2)s1,"inconclusive: 3.55 µM [inhibitor, partial curve, poor fit]"
7,Cc1ccc(S(=O)(=O)c2nc(-c3cccs3)oc2SC(C)C)cc1,"inconclusive: 15.8 µM [inhibitor, single point]"
8,CCCCc1ccc(/C=C(\C#N)C(N)=S)s1,"inconclusive: 8.91 µM [inhibitor, partial curve, poor fit]"
9,COc1cc(CC(=O)Nc2ccc(Cl)c(C(F)(F)F)c2)cc(OC)c1OC,"inconclusive: 3.98 µM [inhibitor, single point]"
10,CC1(C)Cc2c(sc3[nH]c(=S)n(Cc4ccccc4)c(=O)c23)CO1,inactive
11,CCC1=Nc2cc(C(=O)NCc3ccco3)ccc2Sc2ccc(Cl)cc21,"inconclusive: 11.2 µM [inhibitor, partial curve]"
12,CC(C)C[C@H]1CNC(=S)N1C[C@H]1CCCN1C[C@H](Cc1ccccc1)N1C[C@H](Cc2ccc(O)cc2)N(CCc2ccccc2)C1=S,active: 7.08 µM
13,CCOCC(=O)Nc1ccccc1C(=O)O,inactive
14,Cc1nc(-c2ccc(S(=O)(=O)N3CCN(c4cc(Cl)ccc4C)CC3)cc2)co1,"inconclusive: 11.2 µM [inhibitor, partial curve]"
15,COCCNc1nc2c(c(=O)n(C)c(=O)n2C)n1Cc1cccc(C(F)(F)F)c1,"inconclusive: 2.24 µM [inhibitor, full curve]"
16,Cn1cccc1-c1nc2ccccc2n1Cc1ccccc1,"inconclusive: 5.62 µM [inhibitor, single point]"
17,CC1CC(C)CN(C(=O)c2ccncc2)C1 (stereo not given),inactive
18,Cc1cc(C)c(S(=O)(=O)N2CCN(c3ccccc3)CC2)c(C)c1,"inconclusive: 17.8 µM [inhibitor, single point]"
19,O=C(CSc1c2c(nc3cc(Cl)ccc13)CCCC2)N1CCN(c2ccccc2F)CC1,"inconclusive: 17.8 µM [inhibitor, single point]"
20,O=C(CSc1ccc(-c2ccccn2)nn1)c1ccc([N+](=O)[O-])cc1,inactive
21,CCOC(=O)c1noc2ncn(CC(=O)Nc3cccc(Cl)c3)c(=O)c12,inactive
22,COc1cc(/C=C2/SC(N)=NC2=O)ccc1Oc1ccc([N+](=O)[O-])cc1[N+](=O)[O-],inactive
23,O=C(Nc1ncnc2nc[nH]c12)c1ccccc1,inactive
24,Cc1cccc(NC(=O)c2ccc(S(=O)(=O)N3CCCCC3)cc2)c1,inactive

row,Structure (SMILES),Potency
1,Cc1nsc(Nc2ccc([N+](=O)[O-])cc2)c1C#N,"inconclusive: 3.16 µM [inhibitor, full curve]"
2,O=C(c1cc(COc2ccc(F)cc2Cl)on1)N1CCCCC1c1cccnc1 (stereo not given),"inconclusive: 10 µM [inhibitor, partial curve]"
3,COCC(=O)OCC(=O)N1N=C(c2ccc(Cl)cc2)CC1c1ccco1 (stereo not given),"inconclusive: 35.5 µM [inhibitor, single point]"
4,C=C(C)CNC(=S)N/N=C/c1ccc([N+](=O)[O-])cc1,inactive
5,COc1ccc(-c2cc(OC(=O)c3cccc(Cl)c3)c3c(C)oc(C)c3c(=O)c2)cc1,inactive
6,Cc1cccc(C(=O)N2CCC(c3nc4ccccc4s3)CC2)c1,"inconclusive: 35.5 µM [inhibitor, single point]"
7,CCOc1cc(N2CCOCC2)c(OCC)cc1NC(=O)Cc1ccccc1,inactive
8,CNC(=O)c1c(NC(=O)Cc2coc3ccc(C)cc23)sc2c1CCCC2,inactive
9,O=C(Cc1ccccc1)Nc1nnc(SCC(=O)NC2CCCC2)s1,inactive
10,CCOC(=O)N1CCC(=NNc2ccnc3cc(Cl)ccc23)CC1,"inconclusive: 11.2 µM [inhibitor, partial curve, poor fit]"
11,FC(F)Oc1ccc(NC(=S)NC23CC4CC(CC(C4)C2)C3)cc1,active: 12.6 µM
12,O=C(CSc1nc2c([nH]c3ccccc32)c(=O)n1-c1ccccc1)Nc1ccc(Cl)c(Cl)c1,"inconclusive: 2 µM [inhibitor, full curve, poor fit]"
13,Cc1cc(C)cc(NC(=O)Cn2nnc(C(=O)NCc3cccs3)c2N)c1,"inconclusive: 0.631 µM [inhibitor, full curve]"
14,CCc1nn(CC(=O)Nc2c(C)cccc2C)c(=O)c2cc3sccc3n12,"inconclusive: 2.82 µM [inhibitor, full curve]"
15,O=C(c1cc(COc2c(F)cccc2F)on1)N1CCc2ccccc2C1,"inconclusive: 1.58 µM [inhibitor, full curve]"
16,O=C(NCC1CC1)Nc1cccs1,"inconclusive: 0.112 µM [inhibitor, full curve, poor fit]"
17,CCC1CC=CC2C1C(=O)N(Cc1ccccc1)C2c1ccc(OC)c(Cl)c1 (stereo not given),"inconclusive: 25.1 µM [inhibitor, single point]"
18,CCOc1ccccc1NC(=O)CSc1ncc(S(=O)(=O)c2ccc(C)c(C)c2)c(N)n1,active: 8.91 µM
19,Cc1cc(C)n(-c2ccc(C(=O)N3CCN(S(=O)(=O)c4cccc(Br)c4)CC3)cc2)n1,"inconclusive: 10 µM [inhibitor, partial curve, poor fit]"
20,Cc1cccc(NC(=O)c2ccc([N+](=O)[O-])o2)c1C,"inconclusive: 2.51 µM [inhibitor, partial curve, poor fit]"
21,Cc1ccc2c(c1)S/C(=C\c1cccc[n+]1C)N2CCO,"inconclusive: 10 µM [inhibitor, partial curve]"
22,CCC(CC)c1nnc(NC(=O)c2c(-c3ccccc3)noc2C)s1,"inconclusive: 0.562 µM [inhibitor, partial curve, poor fit]"
